This is one part of the list. Many values rest on one well or one pass, so single values are uncertain.
Each molecule was assayed on A101D (assay: cell count relative to DMSO control; melanoma cells; higher = more viable cells). Details: library dose: standard library concentration; 72 h.
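Also: cells treated in 1,536-well plates, then fixed and DAPI-stained, with nuclei counted from automated high-throughput microscope images.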

| Structure (SMILES) | cell count |
| --- | --- |
| O=C(O)c1ccc(-c2c[nH]c3ncc(-c4ccccc4)cc23)cc1C1CCCC1 + COc1ccc(COc2ccc(Cc3cnc(N)nc3N)cc2OC)cc1 [GW2580] (first compound 0.8 µM, partner dose 5 µM) | 117% |
| O=c1[nH]nc(Sc2ncc([N+](=O)[O-])s2)n1-c1ccc2c(c1)OCCO2 + COc1cc(Nc2ncc(F)c(Nc3ccc4c(n3)NC(=O)C(C)(C)O4)n2)cc(OC)c1OC [Tamatinib] (first compound 1 µM, partner dose 2 µM) | 45.7% |
| COc1cc(Nc2ncc(F)c(Nc3ccc4c(n3)NC(=O)C(C)(C)O4)n2)cc(OC)c1OC [Tamatinib] + NC(=O)Nc1cc(-c2cccc(F)c2)sc1C(=O)N[C@H]1CCCNC1 [AZD7762] (first compound 2 µM, partner dose 0.1 µM) | 30.6% |
| O=c1[nH]nc(Sc2ncc([N+](=O)[O-])s2)n1-c1ccc2c(c1)OCCO2 + Cc1ccc(Nc2nccc(N(C)c3ccc4c(C)n(C)nc4c3)n2)cc1S(N)(=O)=O [Pazopanib] (first compound 1 µM, partner dose 2 µM) | 77% |
| CC1(C)NC(=O)N(c2ccc([N+](=O)[O-])c(C(F)(F)F)c2)C1=O [nilutamide] + Cc1ccc(NC(=O)c2cccc(N(C)C)c2)cc1NC(=O)c1ccc(O)cc1 [ZM336372] (first compound 5 µM, partner dose 10 µM) | 97.1% |
| Cn1cncc1[C@@](N)(c1ccc(Cl)cc1)c1ccc2c(c1)c(-c1cccc(Cl)c1)cc(=O)n2C [tipifarnib] + COC(=O)c1sccc1S(=O)(=O)Nc1ccc(Nc2ccccc2)cc1OC [GSK0660] (first compound 0.05 µM, partner dose 5 µM) | 93.3% |
| O=c1[nH]nc(Sc2ncc([N+](=O)[O-])s2)n1-c1ccc2c(c1)OCCO2 + C[C@]1(O)C[C@@H](c2nc(-c3ccc4ccc(-c5ccccc5)nc4c3)c3c(N)nccn32)C1 [OSI906] (first compound 1 µM, partner dose 2 µM) | 90.5% |
| COc1cc(Nc2ncc(F)c(Nc3ccc4c(n3)NC(=O)C(C)(C)O4)n2)cc(OC)c1OC [Tamatinib] + Cc1ccc(NC(=O)c2cccc(N(C)C)c2)cc1NC(=O)c1ccc(O)cc1 [ZM336372] (first compound 2 µM, partner dose 10 µM) | 43.4% |
| O=c1[nH]nc(Sc2ncc([N+](=O)[O-])s2)n1-c1ccc2c(c1)OCCO2 + C[C@]1(c2nc3c(C(N)=O)cccc3[nH]2)CCCN1 [Veliparib] (first compound 1 µM, partner dose 7 µM) | 82% |

The molecules below were run on A2058 in the same assay as above. Details: library dose: standard library concentration; 72 h.

| Structure (SMILES) | cell count |
| --- | --- |
| O=c1[nH]nc(Sc2ncc([N+](=O)[O-])s2)n1-c1ccc2c(c1)OCCO2 + Cc1nc(Nc2ncc(C(=O)Nc3c(C)cccc3Cl)s2)cc(N2CCN(CCO)CC2)n1 [dasatanib] (first compound 1 µM, partner dose 0.02 µM) | 69.9% |
| O=C(O)c1ccc(-c2c[nH]c3ncc(-c4ccccc4)cc23)cc1C1CCCC1 + O=S(=O)(c1ccccc1)N(CC(F)(F)F)c1ccc(C(O)(C(F)(F)F)C(F)(F)F)cc1 [T0901317] (first compound 0.8 µM, partner dose 7 µM) | 88% |
| Cn1cncc1[C@@](N)(c1ccc(Cl)cc1)c1ccc2c(c1)c(-c1cccc(Cl)c1)cc(=O)n2C [tipifarnib] + CN(NC(=O)CC(=O)NN(C)C(=S)c1ccccc1)C(=S)c1ccccc1 [STA4783] (first compound 0.05 µM, partner dose 0.03 µM) | 7.95% |
| O=c1[nH]nc(Sc2ncc([N+](=O)[O-])s2)n1-c1ccc2c(c1)OCCO2 + COc1ccc(-c2ccc3c(N4CCOCC4)nc(N4C[C@@H](C)O[C@@H](C)C4)nc3n2)cc1CO [KU0063794] (first compound 1 µM, partner dose 0.1 µM) | 99.2% |
| Cn1cncc1[C@@](N)(c1ccc(Cl)cc1)c1ccc2c(c1)c(-c1cccc(Cl)c1)cc(=O)n2C [tipifarnib] + CN(C)S(=O)(=O)c1ccc2c(c1)/C(=C/c1cc3c([nH]1)CCCC3)C(=O)N2 [SU6656] (first compound 0.05 µM, partner dose 2 µM) | 68.1% |
| O=C(Nc1cccc(Cl)c1)Nc1ncc(CCNc2ncnc3ccsc23)s1 + O=C(O)c1ccc(-c2c[nH]c3ncc(-c4ccccc4)cc23)cc1C1CCCC1 [GSK650394] (first compound 0.004 µM, partner dose 0.8 µM) | 71.4% |
| O=c1[nH]nc(Sc2ncc([N+](=O)[O-])s2)n1-c1ccc2c(c1)OCCO2 + C#Cc1cccc(Nc2ncnc3cc(OCCOC)c(OCCOC)cc23)c1 [erlotinib] (first compound 1 µM, partner dose 4 µM) | 81.2% |
| O=c1[nH]nc(Sc2ncc([N+](=O)[O-])s2)n1-c1ccc2c(c1)OCCO2 + C[C@@H](N)c1ccc(C(=O)Nc2ccnc3[nH]ccc23)cc1 [RKI983] (first compound 1 µM, partner dose 2 µM) | 71.2% |
| COc1cc(Nc2ncc(F)c(Nc3ccc4c(n3)NC(=O)C(C)(C)O4)n2)cc(OC)c1OC [Tamatinib] + CC(C)(C)c1cnc(CSc2cnc(NC(=O)C3CCNCC3)s2)o1 [SNS-032] (first compound 2 µM, partner dose 0.05 µM) | 85.7% |
| O=c1[nH]nc(Sc2ncc([N+](=O)[O-])s2)n1-c1ccc2c(c1)OCCO2 + NCC(=O)Nc1ccc(-n2nc(C(F)(F)F)cc2-c2ccc3c(ccc4ccccc43)c2)cc1 [OSU03012] (first compound 1 µM, partner dose 5 µM) | 128% |
| O=c1[nH]nc(Sc2ncc([N+](=O)[O-])s2)n1-c1ccc2c(c1)OCCO2 + CN(NC(=O)CC(=O)NN(C)C(=S)c1ccccc1)C(=S)c1ccccc1 [STA4783] (first compound 1 µM, partner dose 0.03 µM) | 9.84% |
| C[C@@H]1CCN(C(=O)CC#N)C[C@@H]1N(C)c1ncnc2[nH]ccc12 + O=C(Nc1ccccc1)c1cc([N+](=O)[O-])ccc1Cl [GW9662] (first compound 5 µM, partner dose 10 µM) | 105% |
| O=c1[nH]nc(Sc2ncc([N+](=O)[O-])s2)n1-c1ccc2c(c1)OCCO2 + NC1(c2ccc(-c3nc4ccn5c(=O)[nH]nc5c4cc3-c3ccccc3)cc2)CCC1 [MK2206] (first compound 1 µM, partner dose 2 µM) | 72.5% |
| C[C@@H]1CCN(C(=O)CC#N)C[C@@H]1N(C)c1ncnc2[nH]ccc12 + O=C(O)c1ccc(-c2c[nH]c3ncc(-c4ccccc4)cc23)cc1C1CCCC1 [GSK650394] (first compound 5 µM, partner dose 0.8 µM) | 122% |
| CC1(C)NC(=O)N(c2ccc([N+](=O)[O-])c(C(F)(F)F)c2)C1=O [nilutamide] + O=C(O)c1ccc(-c2c[nH]c3ncc(-c4ccccc4)cc23)cc1C1CCCC1 [GSK650394] (first compound 5 µM, partner dose 0.8 µM) | 84.4% |
| O=c1[nH]nc(Sc2ncc([N+](=O)[O-])s2)n1-c1ccc2c(c1)OCCO2 + O=C(/C=C/c1cccnc1)NCCCCC1CCN(C(=O)c2ccccc2)CC1 [FK866] (first compound 1 µM, partner dose 0.05 µM) | 114% |
| O=c1[nH]nc(Sc2ncc([N+](=O)[O-])s2)n1-c1ccc2c(c1)OCCO2 + CC1(C)NC(=O)N(c2ccc([N+](=O)[O-])c(C(F)(F)F)c2)C1=O [nilutamide] (first compound 1 µM, partner dose 5 µM) | 98% |
| O=c1[nH]nc(Sc2ncc([N+](=O)[O-])s2)n1-c1ccc2c(c1)OCCO2 + C=CCn1c(=O)c2cnc(Nc3ccc(N4CCN(C)CC4)cc3)nc2n1-c1cccc(C(C)(C)O)n1 [MK1775] (first compound 1 µM, partner dose 0.1 µM) | 92.4% |
| O=c1[nH]nc(Sc2ncc([N+](=O)[O-])s2)n1-c1ccc2c(c1)OCCO2 + Cn1cncc1[C@@](N)(c1ccc(Cl)cc1)c1ccc2c(c1)c(-c1cccc(Cl)c1)cc(=O)n2C [tipifarnib] (first compound 1 µM, partner dose 0.05 µM) | 92.5% |
| CC1(C)NC(=O)N(c2ccc([N+](=O)[O-])c(C(F)(F)F)c2)C1=O [nilutamide] + C=CCn1c(=O)c2cnc(Nc3ccc(N4CCN(C)CC4)cc3)nc2n1-c1cccc(C(C)(C)O)n1 [MK1775] (first compound 5 µM, partner dose 0.1 µM) | 81.1% |
| COc1cc(Nc2ncc(F)c(Nc3ccc4c(n3)NC(=O)C(C)(C)O4)n2)cc(OC)c1OC [Tamatinib] + C=CCn1c(=O)c2cnc(Nc3ccc(N4CCN(C)CC4)cc3)nc2n1-c1cccc(C(C)(C)O)n1 [MK1775] (first compound 2 µM, partner dose 0.1 µM) | 80.4% |
| COc1cc(Nc2ncc(F)c(Nc3ccc4c(n3)NC(=O)C(C)(C)O4)n2)cc(OC)c1OC [Tamatinib] + O=C(Nc1cccc(Cl)c1)Nc1ncc(CCNc2ncnc3ccsc23)s1 [SNS314] (first compound 2 µM, partner dose 0.004 µM) | 54.4% |
| O=c1[nH]nc(Sc2ncc([N+](=O)[O-])s2)n1-c1ccc2c(c1)OCCO2 + COc1ccc(C2=N[C@@H](c3ccc(Cl)cc3)[C@@H](c3ccc(Cl)cc3)N2C(=O)N2CCNC(=O)C2)c(OC(C)C)c1 [Nutlin-3] (first compound 1 µM, partner dose 0.5 µM) | 133% |

Source: the supplement of paper PMC4604168 (melanoma cell lines)
